# Test results published in the supplement of paper PMC8728848.
# The list shows a part of the results.
# Assays:
# Experiment in all cases: glycan array binding signal (z-score within array); higher = stronger binding
# Conditions in all cases: glycan notation: IUPAC condensed, linker removed
# Gal6S(b1-4)Glc = target: Gal6S(b1-4)Glc
# How it was run: (§1)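 The binding signal is a Z-score computed within each array. Data were drawn from 3228 arrays in the Consortium for Functional Glycomics database, restricted to those with a known protein sequence. Scores were averaged over arrays of the same protein sequence at different concentrations or buffers, and over linkers, and negative values can be taken as non-binding.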
# Gal6S(b1-4)Glc6S = target: Gal6S(b1-4)Glc6S
# How it was run: as §1
# Gal6S(b1-4)GlcNAc = target: Gal6S(b1-4)GlcNAc
# How it was run: as §1
# GalNAc(a1-3)Gal = target: GalNAc(a1-3)Gal
# How it was run: as §1
# GalNAc(a1-3)GalNAc = target: GalNAc(a1-3)GalNAc
# How it was run: as §1
# [1] = target: GalNAc(b1-3)Gal(a1-4)Gal(b1-4)GlcNAc
# How it was run: as §1
# GalNAc(b1-4)GlcNAc = target: GalNAc(b1-4)GlcNAc
# How it was run: as §1
# Glc(a1-4)Glc = target: Glc(a1-4)Glc
# How it was run: as §1
# Glc(a1-6)Glc(a1-6)Glc = target: Glc(a1-6)Glc(a1-6)Glc
# How it was run: as §1
# Glc(b1-4)Glc = target: Glc(b1-4)Glc
# How it was run: as §1
# Glc(b1-6)Glc = target: Glc(b1-6)Glc
# How it was run: as §1
# GlcA(b1-3)Gal = target: GlcA(b1-3)Gal
# How it was run: as §1
# GlcA(b1-6)Gal = target: GlcA(b1-6)Gal
# How it was run: as §1
# [2] = target: GlcNAc(a1-3)Gal(b1-4)GlcNAc
# How it was run: as §1
# [3] = target: GlcNAc(a1-6)Gal(b1-4)GlcNAc
# How it was run: as §1
# [4] = target: GlcNAc(b1-2)Gal(b1-3)GlcNAc
# How it was run: as §1
# [5] = target: GlcNAc(b1-2)Man(a1-3)[GlcNAc(b1-2)Man(a1-6)]Man(b1-4)GlcNAc(b1-4)GlcNAc
# How it was run: as §1
# GlcNAc(b1-3)Gal = target: GlcNAc(b1-3)Gal
# How it was run: as §1
# [6] = target: GlcNAc(b1-3)Gal(b1-3)GalNAc
# How it was run: as §1
# GlcNAc(b1-3)Gal(b1-4)Glc = target: GlcNAc(b1-3)Gal(b1-4)Glc
# How it was run: as §1
# [7] = target: GlcNAc(b1-3)Gal(b1-4)GlcNAc
# How it was run: as §1
# [8] = target: GlcNAc(b1-3)Gal(b1-4)GlcNAc(b1-3)Gal(b1-4)GlcNAc
# How it was run: as §1
# GlcNAc(b1-3)GalNAc = target: GlcNAc(b1-3)GalNAc
# How it was run: as §1
# [9] = target: GlcNAc(b1-3)[GlcNAc(b1-4)][GlcNAc(b1-6)]GlcNAc
# How it was run: as §1
# [10] = target: GlcNAc(b1-3)[GlcNAc(b1-6)]Gal(b1-4)GlcNAc
# How it was run: as §1
# [11] = target: GlcNAc(b1-3)[GlcNAc(b1-6)]GlcNAc
# How it was run: as §1
# [12] = target: GlcNAc(b1-4)Gal(b1-4)GlcNAc
# How it was run: as §1
# [13] = target: GlcNAc(b1-4)GlcNAc(b1-4)GlcNAc
# How it was run: as §1
# [14] = target: GlcNAc(b1-4)GlcNAc(b1-4)GlcNAc(b1-4)GlcNAc(b1-4)GlcNAc
# How it was run: as §1
# [15] = target: GlcNAc(b1-4)GlcNAc(b1-4)GlcNAc(b1-4)GlcNAc(b1-4)GlcNAc(b1-4)GlcNAc
# How it was run: as §1
# [16] = target: GlcNAc(b1-4)[GlcNAc(b1-6)]GalNAc
# How it was run: as §1
# [17] = target: GlcNAc(b1-6)Gal(b1-4)GlcNAc
# How it was run: as §1
# GlcNAc(b1-6)GalNAc = target: GlcNAc(b1-6)GalNAc
# How it was run: as §1
# Kdn(a2-3)Gal(b1-3)GlcNAc = target: Kdn(a2-3)Gal(b1-3)GlcNAc
# How it was run: as §1
# Kdn(a2-3)Gal(b1-4)GlcNAc = target: Kdn(a2-3)Gal(b1-4)GlcNAc
# How it was run: as §1
# [18] = target: Man(a1-2)Man(a1-2)Man(a1-3)Man
# How it was run: as §1
# [19] = target: Man(a1-2)Man(a1-2)Man(a1-3)[Man(a1-2)Man(a1-3)[Man(a1-2)Man(a1-6)]Man(a1-6)]Man(b1-4)GlcNAc(b1-4)GlcNAc
# How it was run: as §1
# [20] = target: Man(a1-2)Man(a1-2)Man(a1-3)[Man(a1-2)Man(a1-6)[Man(a1-3)]Man(a1-6)]Man(b1-4)GlcNAc(b1-4)GlcNAc
# How it was run: as §1
# [21] = target: Man(a1-2)Man(a1-2)Man(a1-6)[Man(a1-3)]Man
# How it was run: as §1
# Man(a1-2)Man(a1-3)Man = target: Man(a1-2)Man(a1-3)Man
# How it was run: as §1
# [22] = target: Man(a1-2)Man(a1-3)[Man(a1-2)Man(a1-6)]Man
# How it was run: as §1
# [23] = target: Man(a1-2)Man(a1-3)[Man(a1-3)[Man(a1-6)]Man(a1-6)]Man(b1-4)GlcNAc(b1-4)GlcNAc
# How it was run: as §1
# [24] = target: Man(a1-2)Man(a1-3)[Man(a1-6)]Man(a1-6)[Man(a1-2)Man(a1-3)]Man(b1-4)GlcNAc(b1-4)GlcNAc
# How it was run: as §1
# Man(a1-3)[Man(a1-6)]Man = target: Man(a1-3)[Man(a1-6)]Man
# How it was run: as §1
# [25] = target: Man(a1-3)[Man(a1-6)]Man(a1-6)[Man(a1-3)]Man(b1-4)GlcNAc(b1-4)GlcNAc
# How it was run: as §1
# [26] = target: Man(a1-3)[Man(a1-6)]Man(b1-4)GlcNAc(b1-4)GlcNAc
# How it was run: as §1
# Man(b1-4)GlcNAc = target: Man(b1-4)GlcNAc
# How it was run: as §1
# Neu5Ac(a2-3)Gal = target: Neu5Ac(a2-3)Gal
# How it was run: as §1
# [27] = target: Neu5Ac(a2-3)Gal(b1-3)GalNAc
# How it was run: as §1
binder,measurement,setting,value
"RNase 1 (Bos taurus), P61823 (protein) MALKSLVLLSLLVLVLLLVRVQPSLGKETAAAKFERQHMDSSTSAASSSNYCNQMMKSRNLTKDRCKPVNTFVHESLADVQAVCSQKNVACKNGQTNCYQSYSTMSITDCRETGSSKYPNCAYKTTQANKHIIVACEGNPYVPVHFDASV",glycan array binding signal (z-score),Gal6S(b1-4)Glc,-0.073
same,glycan array binding signal (z-score),Gal6S(b1-4)Glc6S,-0.067
same,glycan array binding signal (z-score),Gal6S(b1-4)GlcNAc,-0.2
same,glycan array binding signal (z-score),GalNAc(a1-3)Gal,-0.222
same,glycan array binding signal (z-score),GalNAc(a1-3)GalNAc,-0.137
same,glycan array binding signal (z-score),[1],0.455
same,glycan array binding signal (z-score),GalNAc(b1-4)GlcNAc,-0.186
same,glycan array binding signal (z-score),Glc(a1-4)Glc,-0.235
same,glycan array binding signal (z-score),Glc(a1-6)Glc(a1-6)Glc,-0.187
same,glycan array binding signal (z-score),Glc(b1-4)Glc,-0.207
same,glycan array binding signal (z-score),Glc(b1-6)Glc,-0.174
same,glycan array binding signal (z-score),GlcA(b1-3)Gal,-0.161
same,glycan array binding signal (z-score),GlcA(b1-6)Gal,-0.088
same,glycan array binding signal (z-score),[2],-0.233
same,glycan array binding signal (z-score),[3],-0.17
same,glycan array binding signal (z-score),[4],0.031
same,glycan array binding signal (z-score),[5],-0.106
same,glycan array binding signal (z-score),GlcNAc(b1-3)Gal,-0.181
same,glycan array binding signal (z-score),[6],-0.194
same,glycan array binding signal (z-score),GlcNAc(b1-3)Gal(b1-4)Glc,-0.099
same,glycan array binding signal (z-score),[7],-0.212
same,glycan array binding signal (z-score),[8],-0.245
same,glycan array binding signal (z-score),GlcNAc(b1-3)GalNAc,-0.251
same,glycan array binding signal (z-score),[9],-0.069
same,glycan array binding signal (z-score),[10],-0.22
same,glycan array binding signal (z-score),[11],-0.116
same,glycan array binding signal (z-score),[12],-0.174
same,glycan array binding signal (z-score),[13],-0.038
same,glycan array binding signal (z-score),[14],-0.028
same,glycan array binding signal (z-score),[15],-0.15
same,glycan array binding signal (z-score),[16],-0.122
same,glycan array binding signal (z-score),[17],-0.165
same,glycan array binding signal (z-score),GlcNAc(b1-6)GalNAc,-0.213
same,glycan array binding signal (z-score),Kdn(a2-3)Gal(b1-3)GlcNAc,-0.162
same,glycan array binding signal (z-score),Kdn(a2-3)Gal(b1-4)GlcNAc,-0.237
same,glycan array binding signal (z-score),[18],-0.204
same,glycan array binding signal (z-score),[19],-0.208
same,glycan array binding signal (z-score),[20],-0.153
same,glycan array binding signal (z-score),[21],-0.001
same,glycan array binding signal (z-score),Man(a1-2)Man(a1-3)Man,-0.174
same,glycan array binding signal (z-score),[22],-0.205
same,glycan array binding signal (z-score),[23],-0.216
same,glycan array binding signal (z-score),[24],-0.132
same,glycan array binding signal (z-score),Man(a1-3)[Man(a1-6)]Man,-0.147
same,glycan array binding signal (z-score),[25],-0.171
same,glycan array binding signal (z-score),[26],-0.179
same,glycan array binding signal (z-score),Man(b1-4)GlcNAc,-0.209
same,glycan array binding signal (z-score),Neu5Ac(a2-3)Gal,-0.215
same,glycan array binding signal (z-score),[27],-0.23
